Reference: PubChem BioAssay AID2546 (National Center for Advancing Translational Sciences (NCATS), 2010)
The whole screen tested about 310,000 compounds, of which about 11,000 (3.5%) were called active. The inconclusive results got no clear call from the source; some entries with a clear call stand among them for comparison. Calls come from the whole dose curve; as a rule, active = well fitted inhibition curve with a large enough effect; inconclusive = small, poorly fitted or top-dose-only effect, or effect the other way; inactive = flat fitted curve, though single readings scatter. No potency is given beside an inconclusive call; the fits are too rough.

assay: VP16 counterscreen qHTS for inhibitors of ROR gamma transcriptional activity; settings: Drosophila S2 Gal4-VP16 UAS-luciferase, luminescence, 20 h; series mostly up to 53.6 µM;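 note: Gal4-VP16 expression switched on by copper sulfate through the metallothionein promoter; nearly all actives have a fitted effect of over 50% in size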
Potency is the fitted concentration of half-maximal effect; tags give direction and shape of the fitted curve.

SMILES | Potency
CCCCCC(=O)NC(=S)Nc1ccc2oc(=O)ccc2c1 | inconclusive [inhibitor, single point]
CN(C)c1ccc(C(=O)n2nnc3ccccc32)cc1 | inconclusive [inhibitor, single point]
CC1=C(C(=O)N2CCCC(C(=O)c3cccc(C(F)(F)F)c3)C2)OCCO1 (stereo not given) | inconclusive [inhibitor, partial curve]
COc1ncc2nc(-c3ccc(F)cc3)c(=O)n(CCC#N)c2n1 | inactive
O=S(=O)(Nc1ccc(N2CCCCC2)cc1)c1ccc(F)c(F)c1 | inconclusive [inhibitor, single point]
COc1cccc(/C=N/Nc2ccc(C(=O)O)cc2)c1O | inconclusive [inhibitor, full curve, poor fit]
CCN(Cc1ccccc1)C(=O)CCc1nc(-c2ccc(C)cc2)no1 | inconclusive [inhibitor, single point]
COc1ccc(NC(=S)N2CCC(C(=O)c3ccc(F)cc3)CC2)c(OC)c1 | inconclusive [activator, single point]
COC(=O)c1ccc(Cl)cc1NC(=O)/C=C/c1ccc(C)o1 | inconclusive [inhibitor, single point]
Nc1[nH]c(N=NC(=O)c2ccc(F)cc2)c2ccccc12 | active: 14.1 µM
Cn1ccnc1SCC(=O)c1ccc(Br)cc1 | inconclusive [inhibitor, single point]
C=C1/C(=C\C=C2/CCC[C@]3(C)[C@@H]([C@H](C)CCCC(C)(C)O)CC[C@@H]23)C[C@@H](O)C[C@@H]1O | inconclusive [inhibitor, partial curve, poor fit]
CCn1cc(C(=O)NCc2ccc3c(c2)OCO3)c2cc(OC)c(OC)cc2c1=O | inconclusive [inhibitor, single point]
CC1=NN(C(=O)c2ccc(C)o2)C(O)(c2ccccc2)C1 (stereo not given) | active: 6.31 µM
c1ccc(-c2csc3nnc(SCc4ccc5c(c4)OCO5)n23)cc1 | inconclusive [inhibitor, single point]
COc1cc(CNC(C)c2ccccc2)cc(Br)c1OCc1ccc(F)cc1 (stereo not given) | inconclusive [inhibitor, single point]
O=C1OCCC1Sc1nc2cc(Cl)ccc2n1Cc1ccccc1 (stereo not given) | inconclusive [inhibitor, single point]
Cc1ccc(-c2noc(CN(C(=O)CCN3C(=O)c4ccccc4C3=O)C(C)C)n2)cc1 | inactive
O=C(N/N=C/c1cc2c3c(c1O)CCCN3CCC2)c1ccccc1O | active: 20 µM
CC(CCc1ccccc1)NC(=O)COC(=O)c1ccc(S(C)(=O)=O)c([N+](=O)[O-])c1 (stereo not given) | inconclusive [inhibitor, single point]
Cc1cc2c(SCC(=O)NC3CCCCC3)ncnc2s1 | inconclusive [activator, single point]
COc1cccc(-c2cc(C(=O)Nc3cccc(O)c3)no2)c1 | active: 2.51 µM
CN(C)c1nc(NCc2ccccc2)nc(N/N=C/c2ccc3c(c2)OCO3)n1 | inconclusive [inhibitor, single point]

SMILES | Potency
Cc1noc(/C=C/c2nn(C)cc2Cl)c1[N+](=O)[O-] | inconclusive [inhibitor, single point]
CCn1c(-c2cccc(Cl)c2)n[nH]c1=S | active: 11.2 µM
CCOC(=O)c1csc(-c2sccc2Br)n1 | inconclusive [activator, single point]
CCOC(=O)C1CCN(C(=S)Nc2ccc(CC)cc2)CC1 | inconclusive [inhibitor, single point]
CCn1nnc(NC(=O)C(C)Oc2ccc(Cl)cc2Cl)n1 (stereo not given) | inconclusive [inhibitor, single point]
COCCCNc1nc2c(-c3cccc(C)c3)nnn2c2ccc(Cl)cc12 | inconclusive [inhibitor, single point]
O=C(c1cc(-c2cccc(O)c2)on1)N1CCCC1 | inactive
CCOc1ccccc1NC(=O)C(OC(=O)c1ccc(O)cc1)c1ccccc1 (stereo not given) | inconclusive [inhibitor, single point]
COc1cccc(O)c1CN1CCC(C(=O)Nc2ccc(-c3cccc(C)c3)cc2)CC1 | active: 14.1 µM
COc1cc(/C=N/NC(=O)CNC(=O)c2cccs2)ccc1O | inconclusive [activator, single point]
O=C(Cc1cccs1)NCc1cccc(C(F)(F)F)c1 | inconclusive [activator, full curve]
O=C(CCC1CCCCC1)NCc1ccncc1 | inconclusive [activator, single point]
NC(=S)N/N=C/c1ccc2ccccc2c1 | inconclusive [inhibitor, full curve, poor fit]
CCOc1cc(C=O)cc(N=Nc2cccc([N+](=O)[O-])c2)c1O | inconclusive [inhibitor, single point]
COC(=O)[C@@]1(Cc2ccc(OC)cc2)[C@H]2c3cc(C(=O)N(C)C)n(Cc4ccccc4)c3C[C@H]2CN1C(=O)c1ccccc1 | inactive
CCN(c1cccc(C)c1)c1ncnc2nc[nH]c12 | inactive
CCNC(=S)Nc1cccc(S(=O)(=O)Nc2ccccc2OC)c1 | inconclusive [inhibitor, single point]
Cc1cc(C)cc(NC(=S)NCc2cccn2C)c1 | active: 10 µM
COc1ccc(C(=O)N2CCN(c3ccc(C)cc3C)CC2)cc1OC | inactive
Cc1ccc(CCC(=O)Nc2ccc(N(C)C)cc2)o1 | inconclusive [inhibitor, partial curve]
COc1ccc(C2c3cc(OC)c(OC)cc3CCN2C(=O)c2ccccc2Br)cc1OC (stereo not given) | inconclusive [inhibitor, single point]
COc1ccc(CCC(C)Nc2ccccc2F)cc1 (stereo not given) | inconclusive [activator, single point]
